The other results are listed elsewhere or left out.
System: T1, Caupolican (Caup) homeodomain DNA-binding domain
T1 sequence: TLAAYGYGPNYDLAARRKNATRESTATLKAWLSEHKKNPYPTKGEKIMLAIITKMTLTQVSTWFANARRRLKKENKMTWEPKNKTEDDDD
Test: PBM E-score (8-mer, recovered from the published 9-mer minima) (E-score (dimensionless, -0.5 to 0.5)); Drosophila protein; higher = stronger relative binding preference, active = 0.31 or more
Procedure, shortened: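 An enrichment score, with higher meaning stronger, expresses relative binding preference for each short DNA word. The protein used was Caup's homeodomain DNA-binding domain (residues 214-303), produced by in vitro transcription and translation and tested at 100 nM on custom-designed protein binding microarrays. The 8-mer values were recovered from published 9-mer scores, each equal to the lower of its two constituent 8-mer scores.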

Sequence	PBM E-score
GCACCAAC	inactive: -0.125
GCGCGACA	inactive: 0.0595
CAGCATAC	inactive: 0.0483
CCCCACTA	inactive: -0.181
AGACGCGG	inactive: -0.112
GCCACTTA	inactive: -0.0381
ATCTATTG	inactive: 0.0391
GAGGTGCC	inactive: -0.193
GGGAATGA	inactive: 0.0175
AAAAACTG	inactive: 0.0692
GAGGCTAA	inactive: 0.0337
CGGCAGGA	inactive: -0.238
CGGTGGCC	inactive: -0.244
ACGCTAGT	inactive: -0.0382
TAGATGAA	inactive: 0.0677
CCCGCAAC	inactive: -0.109
CTACTGCC	inactive: -0.116
GCCCTTGA	inactive: -0.0834
CGGAAGAA	inactive: -0.109
CAACCTCA	inactive: -0.0651
TACGAACA	active: 0.31
CAAATTGA	inactive: 0.0427
AAGCTGCA	inactive: -0.0901
AAGCCTCT	inactive: -0.136
AAGGTGAG	inactive: -0.107

Sequence	PBM E-score
AAGCACCC	inactive: -0.131
CCGAATTA	inactive: 0.00196
CACGGTTC	inactive: 0.0169
ACTACGTC	inactive: 0.021
GATCGTCC	inactive: -0.0919
CTTGCCCC	inactive: -0.243
ATATCTTC	inactive: 0.0704
GAATGGGA	inactive: -0.0755
TTGTTAAA	inactive: 0.23
AGAACAGG	inactive: 0.139
CATAATCC	inactive: 0.0451
GCGCAGTA	inactive: -0.0445
CTGAGGAC	inactive: -0.0428
GGTGTCGA	inactive: 0.0872
ACATCTGC	inactive: 0.177
ACCTACCT	inactive: -0.066
ATGACGCC	inactive: -0.118
AAATATGA	inactive: 0.164
ATCGAACG	inactive: 0.045
GGCTAGCA	inactive: -0.132
CCCGTGCG	inactive: -0.175
CATGACCA	inactive: 0.139
ACCAGATC	inactive: -0.0112
CCTTGAGA	inactive: -0.00291
CTATGCGA	inactive: -0.0581

Sequence	PBM E-score
CCAATCAA	inactive: 0.0187
AGGGTAAA	inactive: 0.0667
AACATATG	active: ≥ 0.356
ACATAGTA	inactive: 0.28
AACTTAAT	inactive: 0.145
AGGGCAAT	inactive: -0.143
AAGGCGGC	inactive: -0.113
AAGGAAAA	≥ 0.0674
CCAGTATC	inactive: -0.0407
CGATCCTA	inactive: -0.0295
AGGGAACC	inactive: -0.191
GAGCTCGC	inactive: -0.25
GAGTGTAA	inactive: 0.11
ACAACGCG	inactive: 0.0708
GGAACTAA	inactive: -0.00107
AGCCAGAT	inactive: -0.0819
ATCACAGA	≥ 0.126
AGGCAAAA	inactive: -0.0175
CTGACGGC	inactive: -0.217
AATTACGC	inactive: 0.0512
ACAAGTTC	inactive: 0.233
AGCTGTCG	inactive: -0.00815
CCAATGAG	inactive: -0.0766
TATACAAA	inactive: 0.264
GTCGACAA	inactive: 0.136

Sequence	PBM E-score
GCCGCTTA	inactive: -0.0843
CCGAAGAG	inactive: -0.165
GGGCGTGA	inactive: -0.0887
ACCGAGAG	inactive: -0.108
AACGGACC	inactive: -0.0991
CCCGAGTA	inactive: 0.0585
CCCCAAAC	inactive: -0.0197
CCCTCTCA	inactive: -0.192
ACTCGAAG	inactive: -0.132
CCGAACCC	inactive: -0.194
CGTGGGAG	inactive: -0.161
CTTCCTAA	inactive: -0.082
CCGCACTA	inactive: -0.0633
ATATGTCC	inactive: 0.261
ACCCCCAT	inactive: -0.133
AAAACAGA	inactive: 0.113
CGCTCGCA	inactive: -0.211
GTCAGCAC	inactive: 0.00175
CTTGATAA	inactive: 0.124
GCCACGAA	inactive: -0.0867
ATACTTTC	inactive: 0.0528
ACTCTGTC	inactive: 0.0558
GTTTCGCA	inactive: -0.0304
CATATACC	inactive: 0.0932
GGGGCAGA	inactive: -0.108

Sequence	PBM E-score
ACCCGCGT	inactive: -0.0456
TACTATCA	≥ 0.172
ACGCACCA	inactive: -0.123
AATCACTC	inactive: 0.0003
CATTCTAA	inactive: 0.106
ATCAGAGA	inactive: 0.0799
CCTGCTGC	inactive: -0.187
ACTAAGCA	inactive: 0.0953
AGGTTTCA	inactive: -0.0675
ACTGAGTG	inactive: 0.0234
GAAGTGTC	inactive: 0.0825
ACGGGAAC	inactive: -0.00669
ATTGTTCA	inactive: 0.184
GACTTTAC	inactive: 0.0268
CTAGGCGA	inactive: -0.21
ACGTGTTA	active: 0.33
AGCGTTAA	inactive: -0.0912
AGATAGCA	inactive: 0.0249
AGAAGGAA	inactive: -0.102
CGATTGAA	inactive: 0.0347
TAGCGCGA	inactive: -0.0603
AGGCCACG	inactive: -0.233
CTGTTTGC	inactive: 0.181
CTACATGA	active: 0.36
CGATAGTA	inactive: 0.0419

Sequence	PBM E-score
AGAACGAA	inactive: 0.0411
CGAGCATC	inactive: -0.113
AGCCGTAC	inactive: -0.0277
CGCGCCGA	inactive: -0.147
CCCGGCCA	inactive: -0.28
GATAAGAA	inactive: 0.164
TGAAGACA	inactive: 0.11
TCTGGGCA	inactive: -0.175
ACAAACAG	inactive: 0.258
AGCCGACT	inactive: -0.151
CAAGTCTC	inactive: -0.0163
CAGCTGCA	inactive: -0.118
TTACGTAA	≥ 0.173
AGCCCTTC	inactive: -0.22
CAACTAAG	inactive: -0.0428
GCTGCGCC	inactive: -0.25
AAAGGTAT	inactive: 0.0107
AGCAGTCG	inactive: -0.15
AGCCACCC	inactive: -0.218
ACCGAAAT	inactive: 0.0167
AGCATAAA	inactive: 0.0864
GAACCAAA	inactive: -0.0466
ACGTCCAC	inactive: -0.0264
CGTTCTCC	inactive: -0.0158
AGATCAGA	inactive: 0.0577

Sequence	PBM E-score
CGGATACC	inactive: 0.0289
ACCTAAGC	inactive: -0.044
ACGTTAAG	inactive: 0.0104
ACTGATAG	inactive: 0.14
TGCCACCA	inactive: -0.123
AGTAGGAC	inactive: 0.0204
ATCTAACG	inactive: -0.014
AGAAGCAC	inactive: -0.0814
CGGACCGC	inactive: -0.201
AATCTAGA	inactive: 0.0328
GGTGCTCA	inactive: -0.0513
AAAAACGC	inactive: -0.00468
AGATGACG	inactive: -0.0203
AGAGCGAC	inactive: -0.0105
CCTATGAG	inactive: -0.0426
AAGACGTC	inactive: -0.0532
CCCTCGAG	inactive: -0.151
AGTTGCGA	inactive: 0.0916
AACTGTCA	inactive: 0.142
ACCTGCAG	inactive: -0.0444
AGCTAGTC	inactive: 0.0414
CATCTCGC	inactive: -0.141
ACAGTGTA	≥ 0.218
ACAATGCG	inactive: 0.113
ACCCTTGA	inactive: -0.102

Sequence	PBM E-score
GAGTTGCC	inactive: -0.0641
ACTCCAAG	inactive: 0.0284
ACGGTAAA	inactive: 0.0192
TAAAGTGA	inactive: 0.0599
GAAGTGCA	inactive: -0.0221
AGTGGGGC	inactive: -0.245
GTCTAGCA	inactive: 0.0138
TTTGCAAA	inactive: -0.0107
TCACGTCA	inactive: 0.0383
GCCCTAGC	inactive: -0.208
CATATTTA	inactive: 0.178
CCGCGGTC	inactive: -0.225
GCGGTCAA	inactive: -0.0861
AAGATAAT	inactive: 0.0663
CAATGCAG	inactive: 0.00205
AGCGCAGC	inactive: -0.235
CTTACAGA	inactive: 0.0591
AGATAAGA	inactive: 0.105
CTAATCGA	inactive: 0.0915
ACTCTGAA	inactive: 0.0341
AATACCGA	inactive: 0.0108
CGTGACTA	inactive: 0.0993
ACAGGCAC	inactive: 0.0139
CAGTCAAA	inactive: 0.0235
TATGGCGA	inactive: -0.116

Sequence	PBM E-score
CCCGATGA	inactive: -0.0958
ATAGAGAA	inactive: 0.0414
CACTTGAA	inactive: 0.106
AAACGCTT	inactive: -0.0575
TCTTAACA	inactive: 0.218
CGCATAGA	inactive: -0.101
CGAGACGC	inactive: -0.134
AATACATT	inactive: 0.225
AGTTAACC	inactive: 0.074
AGGAGCAT	inactive: 0.0589
AGCCAGTG	inactive: -0.00949
AAGCGTGT	inactive: 0.265
AGTTGTTA	inactive: 0.266
ATCCGCCG	inactive: -0.134
CGCTATAA	inactive: 0.0278
TCGGGTCA	≥ -0.0606
ATTACTCA	inactive: 0.112
ACTATGCC	inactive: 0.0286
AGTACTAT	inactive: 0.165
CCAAATGC	inactive: -0.0451
AAAAGTGG	inactive: -0.0248
ACAATGTC	active: 0.316
AACACTCT	inactive: 0.154
